Laboratory results taken from PubChem BioAssay AID1347120 (National Center for Advancing Translational Sciences (NCATS), 2019).
Values joined by “and” are separate entries in the source; they are usually repeats but may differ in a detail not shown here. Equal values may be shown once. Among all 390,000 compounds or so, about 930 (0.24%) were called active. Inconclusive means that the source gave no clear call. Such entries were picked first, then a sample of the others. Calls follow the shape of the dose curve; as a rule, active = well fitted activation curve with a large enough effect; inconclusive = small, poorly fitted or top-dose-only effect; inactive = no such curve, though single readings can be large or run the other way. Where the call is inconclusive, the potency comes from a doubtful curve fit.

assay: qHTS for Suppressors of FUS Proteinopathy: Primary screen using FUS-linked yeast assay; also: nearly all actives have a fitted effect of over 55% in size;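 as to growth rescue (activation): plate controls were DMSO vehicle for no effect and reference control for full effect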; conditions: S. cerevisiae FUS-expressing, OD600, 24 h; Potency: growth rescue; growth rescue (activation): at 76.6 µM (top of the series)
Outline: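 Toxicity suppression screen in FUS-yeast. Cells induced with 2% galactose, starting OD 0.005, treated 24hr at 30C with compounds at multiple final concentrations; growth by OD600.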
Potency is read from the fitted curve at half-maximal effect; tags tell the direction and shape of the fitted curve.

Row | Structure (SMILES) | growth rescue (activation) | Potency
1 | COc1ccc(-n2c(=O)c3c4c(sc3n(Cc3ccccc3)c2=O)CCC4)c(OC)c1 | inactive: 27.4% | –
2 | O=C1C(=O)N(C2CCN(C(=O)c3ccc(F)cc3)CC2)CCN1Cc1ccc(F)cc1 | inactive: -6.05% | –
3 | O=C(N[C@@H]1C/C=C\C[C@@H](CC(=O)N(CCO)Cc2ccccc2)C(=O)NCCOC1=O)OCC1c2ccccc2-c2ccccc21 | – | inconclusive: 31.6 µM [activator, single point]
4 | Cc1cccc(OC(C)C(=O)N2CCC(c3nc4ccccc4o3)CC2)c1C (stereo not given) | inactive: 34.2% | –
5 | CCOc1ccc(Br)cc1C1C(C(=O)Nc2ccccc2OC)=C(C)Nc2nnnn21 (stereo not given) | inactive: 6.6% | –
6 | CCOC(=O)c1sc(NNC(=O)c2ccc(F)cc2)nc1C | inactive: 8.47% | –
7 | O=C(c1cccs1)N1C[C@@H](O)[C@H](n2cc(-c3ccc(F)cc3)nn2)C[C@@H]1c1ccc(Cl)cc1 | – | inconclusive: 31.6 µM [activator, single point]
8 | COc1ccc(NC(=O)C(=O)Nc2ccc3nc4n(c(=O)c3c2)CCCCC4)c(OC)c1 | inactive: 0.489% | –
9 | Cc1cccc(Nc2nc(-c3ccc(O)c(O)c3)cs2)n1 | inactive: 23% | –
10 | CC(=O)c1cccc(-c2csc(N3CCC(C(N)=O)CC3)n2)c1 | inactive: -7.58% | –
11 | CCC1=NN2C(=N)/C(=C/c3ccc(OS(=O)(=O)c4ccccc4)cc3)C(=O)N=C2S1 | – | inconclusive: 14.1 µM [activator, partial curve, poor fit]
12 | CCOc1ccc(OCc2ccc(C(=O)N3N=C(C(F)F)CC3(O)C(F)F)o2)cc1 (stereo not given) | inconclusive: 76.5% [activator] | –
13 | O=S1(=O)c2c(cccc2N2CC[C@H](O)C2)O[C@H]2CCN1C2 | inactive: -0.273% | –
14 | CCOC(=O)N1CCN(C(=O)C[C@H]2C[C@@]3(C(=O)OC)C(=C[C@H](C(C)(C)C)O[C@@H]3C)N(Cc3ccco3)C2=O)CC1 | – | inconclusive: 12.6 µM [activator, partial curve, poor fit]
15 | CC(C)n1c(O)c(N=NC(=O)CNC(=O)Cc2ccc(Cl)cc2)c2ccccc21 | – | inconclusive: 15.8 µM [activator, partial curve]
16 | C=CCN1c2ccccc2[C@]23C[C@@H](C(=O)OC)N(C(=O)c4cccs4)C2=NC(C(=O)OC)=C(C(=O)OC)[C@H]13 | – | inconclusive: 31.6 µM [activator, single point]
17 | CC(=O)c1cccc(NC(=O)Nc2cccs2)c1 | inconclusive: 58.3% [activator] | –
18 | O=C(CSc1c2c(nc3ccc(Cl)cc13)CCCC2)N1CCN(c2ccc(Cl)cc2)CC1 | – | inconclusive: 28.2 µM [activator, single point]
19 | COc1ccccc1N1CCN(C(=O)C2CCN(S(=O)(=O)c3cccs3)CC2)CC1 | inactive: 43.8% | –
20 | C#CCOc1c(Br)cc(C2C(C(=O)OC)=C(C)NC3=C2C(=O)c2ccccc23)cc1OCC (stereo not given) | inactive: -8.6% | –
21 | O=C(Cc1ccc(F)cc1)Nc1nc(-c2ccc(F)cc2)cs1 | inactive: -3.77% | –
22 | CC(C)c1cnc2c(c1SCC(=O)c1ccc(Cl)cc1)c(=O)n(C)c(=O)n2C | – | inconclusive: 50.1 µM [activator, single point]

Row | Structure (SMILES) | growth rescue (activation) | Potency
23 | Cc1ccc(-c2cc(C(=O)NN=Cc3cccc(OCc4ccccc4)c3)[nH]n2)cc1C | – | inconclusive: 25.1 µM [activator, single point]
24 | CCn1c(=O)c(C(=O)CN2CCCc3ccccc32)c(N)n(Cc2ccccc2)c1=O | – | inconclusive: 25.1 µM [activator, partial curve, poor fit]
25 | COc1ccc2ncc3c(-c4ccccc4)nn(-c4ccc(C)c(C)c4)c3c2c1 | inactive: 16.4% | –
26 | CC(C)(C)OC(=O)N1CCC(c2c(C(=O)NCCc3ccsc3)cnn2-c2ccc(F)cc2F)CC1 | – | inconclusive: 22.4 µM [activator, single point]
27 | Cc1ccc(C(=O)NNC(=O)c2cccc(S(=O)(=O)N3CCN(c4ccccc4)CC3)c2)cc1 | – | inconclusive: 28.2 µM [activator, partial curve]
28 | CCOC(=O)c1c(Nc2ccc(OCC)cc2)nnc(-c2ccccc2)c1-c1ccccc1 | inactive: 18.9% | –
29 | COc1ccc(S(=O)(=O)Nc2c(C)nn(C)c2C)cc1Br | – | inconclusive: 11.2 µM [activator, partial curve]
30 | Cc1ccc(-n2c(SCc3nc4ccccc4[nH]3)nnc2-c2ccccn2)cc1 | inactive: 13.6% | –
31 | COC(=O)[C@]12C[C@H](CC(=O)N3CCN(C(=O)c4ccco4)CC3)C(=O)N(CCc3ccc(OC)c(OC)c3)C1=C[C@H](C(C)(C)C)O[C@@H]2C | – | inconclusive: 17.8 µM [activator, partial curve, poor fit]
32 | O=C1CCCc2nn(-c3ccccc3)nc21 | – | inconclusive: 50.1 µM [activator, single point]
33 | COc1ccc2c3n(nc2c1)CCN=C3c1ccc(Cl)cc1 | inactive: -32.8% | –
34 | Cn1c(=O)c2c(nc(CN3CCc4ccccc4C3)n2CC(=O)c2ccccc2)n(C)c1=O | – | inconclusive: 44.7 µM [activator, single point]
35 | CCOc1ccc(/C(O)=C2/C(=O)C(=O)N(c3ccccn3)C2c2ccc(Cl)cc2)c(C)c1 (stereo not given) | – | inconclusive: 39.8 µM [activator, single point]
36 | CCOC(=O)CSC1=C(C#N)C(c2ccc(OC)cc2)C2=C(CC(C)(C)CC2=O)N1 (stereo not given) | – | inconclusive: 39.8 µM [activator, partial curve, poor fit]
37 | O=C(Cn1cnc2ccccc2c1=O)Nc1nnc(SCc2ccccc2)s1 | – | inconclusive: 50.1 µM [activator, single point]
38 | CCOc1ccc(NCc2cccn2-c2nnc(N3CCC(C(=O)NCCc4ccc(OCC)c(OCC)c4)CC3)s2)cc1 | – | inconclusive: 17.8 µM [activator, partial curve, poor fit]
39 | CC(=O)C1=C(c2cccc([N+](=O)[O-])c2)N(C(C)=O)n2c(C)nnc2S1 | inactive: 22.6% | –
40 | COc1ccc(S(=O)(=O)N2CCN(C(=O)c3cc(-c4ccc(Br)cc4)n[nH]3)CC2)cc1OC | – | inconclusive: 39.8 µM [activator, single point] and inconclusive: 50.1 µM [activator, single point]
41 | CCc1cccc2c(C(=O)CN3C(=O)N(C)C4(CCCCC4)C3=O)c[nH]c12 | – | inconclusive: 50.1 µM [activator, single point]
42 | C=CC[C@@H](CC(=O)N[C@H](CO)Cc1ccccc1)C(=O)N[C@H](COC(=O)[C@@H](CC=C)Cc1ccc(F)cc1)C(C)(C)C | – | active: 15.8 µM
43 | O=C(Nc1ccc(Cl)c(Cl)c1)c1cccc2c1-c1ccccc1C2=O | inactive: 5.97% | –
44 | O=C(Nc1cccc(S(=O)(=O)N2CCCCCC2)c1)c1cc(=O)c2ccccc2o1 | inactive: 43.3% | –

Row | Structure (SMILES) | growth rescue (activation) | Potency
45 | COc1cccc(C2CC(c3cccs3)=NN2C(=O)c2ccco2)c1O (stereo not given) | inactive: 27.9% | –
46 | CCOc1ccc(-c2n[nH]c3c2C(c2cccs2)N(c2ccc(Br)cc2)C3=O)cc1 (stereo not given) | – | inconclusive: 10 µM [activator, single point]
47 | O=S1(=O)C=C(Sc2nc3cc(Cl)ccc3o2)c2ccccc21 | inactive: -22.9% | –
48 | CCCCOCCCNC(=O)C[C@@H]1C[C@@]2(C(=O)OC)CC(C)(C)CC=C2N(Cc2cccc3ccccc23)C1=O | – | inconclusive: 14.1 µM [activator, partial curve, poor fit]
49 | COc1ccc(-c2ccc3[nH]c4c(c3c2)CCN2C[C@@H]([C@H](C)O)[C@@H](N(C)C(=O)Nc3cc(Cl)cc(Cl)c3)C[C@@H]42)cc1 | – | inconclusive: 50.1 µM [activator, single point]
50 | Cc1ccccc1CN1CCN(C(=O)c2cccc3ccccc23)CC1 | inactive: 16% | –
51 | N#C/C(=C(/O)c1ccc2c(c1)OCO2)c1nc2cc(C(F)(F)F)ccc2s1 | inactive: 12.9% | –
52 | CCOc1ccc(NC(=O)CSc2oc(-c3ccco3)nc2S(=O)(=O)c2ccc(Cl)cc2)cc1 | inactive: 24.8% | –
53 | CC(C)[C@H](NS(=O)(=O)c1ccccc1)C(=O)OCC(=O)NC(=O)c1cccn1C | – | inconclusive: 35.5 µM [activator, partial curve, poor fit]
54 | Cn1cc(C(=O)c2ccc(Cl)cc2Cl)cc1C=O | inactive: 23.1% | –
55 | COc1ccccc1N1CCN(S(=O)(=O)c2c(C)ccc3nsnc23)CC1 | – | inconclusive: 50.1 µM [activator, partial curve, poor fit]
56 | O=C(/C=C/c1ccc(Br)cc1)NC(=S)NNC(=O)c1ccco1 | inactive: 14.3% | –
57 | CCOc1ccc(N(CC(=O)NCc2ccc(C)cc2)S(=O)(=O)c2c(C)[nH]c(=O)[nH]c2=O)cc1 | – | inconclusive: 50.1 µM [activator, single point]
58 | CCOC(=O)N1CCc2c(sc(NCc3ccc(N(C)C)cc3)c2C(=O)Nc2ccccc2OCC)C1 | – | inconclusive: 28.2 µM [activator, single point]
59 | COc1ccc(-n2cnnc2SCC(=O)N2CCN(c3ccccc3)CC2)cc1 | inactive: 15.3% | –
60 | CC(C)C[C@@H]1COc2cc(F)ccc2S(=O)(=O)N1C | inactive: -9.37% | –
61 | COC(=O)[C@]12C[C@H](CC(=O)NCCc3ccccc3OC)C(=O)N(CCc3ccc(OC)c(OC)c3)C1=C[C@H](COCc1ccccc1)O[C@@H]2C | – | inconclusive: 22.4 µM [activator, partial curve, poor fit]
62 | COc1ccc(CCN(C)C(=O)CSc2nnc(C3CC3)n2N)cc1OC | inactive: -3.28% | –
63 | O=[N+]([O-])c1ccc(OCc2cnc(Cl)s2)c([N+](=O)[O-])c1 | inactive: 1.97% | –
64 | O=C(NC1CCCCN(Cc2cccc(C(F)(F)F)c2)C1=O)c1ccc(COc2ccccc2)cc1 (stereo not given) | inactive: 39.6% | –
65 | COc1cccc(-c2cc(NC(C)=O)c3ncc(-c4cccc(C(C)=O)c4)n3c2)c1 | – | inconclusive: 31.6 µM [activator, single point]
